Our source for the self-cleavage values is the RNAGym collection of RNA variant scans (doi:10.7554/elife.90254).

Read counts are not given, so values of variants with three or more changes are uncertain.

The chains are these.
B1: LINE1-mini (parent)
chain: GGCAGAGCUCAACACAGCGUGGCAAAGUGGCUGUGGCUAGACUGCC

The data set covers variants of B1. As to the kind of experiment: self-cleavage, relative activity (ratio to wild type); higher = more cleavage; in vitro, sequencing; the parent is a self-cleaving ribozyme.
GGCAGAGCUAAACACAGCGAGGCAAAGUGGCUGUGGAUACACUGCC: the self-cleavage was found to be 0.01. Take GGCAAGGCUCAACACAGCGUGAAAAAGUGGCUGUGGCUAGACUGCC: the self-cleavage turned out to be 0.04. Under GGCAGAGCCAAACACAGCGUGGCAAAGUGGCUGUGGCUAGACAGCC stands 0.02. With GGCAGAGCUCAACCCGGCGUGCCAAAGUGGCUUUGGCUAGUCUGCC the figure was 0.01; with GUCAGAGCUCAACACAGGGUGGCAAAGUGGCUGUGCCUAGACUGCC, 0.02. Under GCCAGAGCUCAACACAGCGUGGCAAGGUGGCUGUUGCUAGACUGCC stands 0.24; under GGGAGCGCUCAACACAGCGUCGUUAAGUGGCUGUGGCUAGACUGGC, 0.03. In the case of GGCAGAGCUCGACAUAGCGGGGCAUAGUGGCUGUAGCUUGACUGCC, the self-cleavage came out at 0. With AGCAGAGCUCAACACAGCGUGGUAAAGUGGCUGUGGCUCGACUGCC the figure was 0.09; with GGCAGAGCACAAAACAGCGUGGCAAAGUGGCUGUGGCAAGACUGCC, 0.78. Under GACAGACCUCUACACAGCGUGGCAAAGUGCCUGUCGCUAGACAGCC stands 0.02; under GGCAGAGCUCAACACAACGUGACAAAGUGGCUGUGGCCAGACUGCC, 0.67. With GGCAGAGCUCAACACACCGUCGGAAGGUGGCUGUGGCAAGACUGCC the figure was 0.39; with GGCACAGCUCAAGACAGCGCGGCAAAGUGGCUGUGGCUAGACUGCC, 0.01.

Take GGCAGAGUUCAACACGGAGUGCCAAAGUGGCUGUGGCUAGACUGCC: the self-cleavage was 0.07.

With GGCAUAGCUAAACACAGCGUGGCAAAGCGGCUGUUGCUAGACUGCC, the self-cleavage was determined as 0.02. Turning to GGCAGAGAUCAACACAGCGGGGCAAAGUUGCUGUGGUUAGACUGGC, the self-cleavage is 0.11. With GGCAGAGCUCAACACUGCGUGGGAAAGUGGCUGUGGCUAGUCUGCC the figure was 0.11. With GGCAGAACUCAACUCAGCGUGGUAAAGUGGCUGUGGGUAGACUGCU the figure was 0.03. With GGCAGGGCUCAACACAGCGUGGCAAAGUGGCUGGGGCUAGACUCAC the figure was 0.01; with GGCAGAGCUUAACACAGCGUGGUAAAGUGGCUGUGGCUAGACUGAC, 0.35; with GGCAGAGCUCAACAAAGGGUGGUAAAGUGGCUGUGGCUAGACUGCC, 0.05.

Take GGCAUAGCUCAACACAGCGUGGCAAAGUGGCUGUGGCUAGCCUACC: the self-cleavage worked out at 0.08. Regarding GGUAGAGCUCAACACAGCGAGGCAAAGUGGCUGUUGCUAGACUGCC, the self-cleavage was 0.06. Take GGCAGAGCUCAACACAGCGUGUCAAAGUGGCUUUGGCUAGACUACC: the self-cleavage was 0.07. On to GGCACAGCUCAACAUAGCGUGGCAAAGUGGGUGUGGCUAGACUGCC, for which the self-cleavage stood at 0.02. Under GGCAGAGCUCAACACAGUGUGGCAAAGUGGCUGUGGCUAGACUUGC stands 0.06; under GGCAGAGCUCAACACAGCGUGGGAAAGUGGCAGUGGCAAGACUUCC, 0.03. On to GGCAGAGCACAACACAGCGUGGCAAGGUGGCUGUGGCUCCACUGCC, for which the self-cleavage came out at 0.1. Under GGCACAGCUCAAUACAGCGUGUCAAAGUGGCUGUGGCUAGACUGCC stands 0.31; under GGCAGAGUUCAACAGAGCGUGGAAAAGUGGCUGUGGCUAGACUGCC, 0.17.

Regarding GGCAGAGCUCAACGCAGGGUGACAAAGUGGCGGGGGCUAGACUGGC, the self-cleavage is 0.01. Under GGCAGACAUCAACACAUCGUGGCAUAGUGGCUGUGGUUGGACUGCC stands 0.02.

On to GGCAGAGCUCAACACAGCGUGGUAAAGAGGCUGUGGCUGGACUGCC, for which the self-cleavage came out at 0.03. Under GGCAGAGCUAAACAAAGCGUGGAAAAGUGGCUGUGGCUAGACUGCC stands 0.03. With GGCAGAGCUCAACACAGCGUGCCAAAGUGGCGGUGGCUAGACUUCC the figure was 0.1; with GGAAGAGCUCCACACAGCGUGGCAAAUUGGCUGUGGCUAGACUGCC, 0.03; with GCCAGAGCUCAACACAGCGUGUCAAAGUAGCUGUGGCUAGACUGCC, 0.3. With GGCAGCUCUCAACAUAGCAUGGGACAGUGGCUUUCGCAAGACUGCC the figure was 0.01; with GUCAGAGCUCAACACGGCGUGCCCAAGUGGCUGUGGCUAGACUGCU, 0.03.

Take GGCAGACCUCAACACAGCGUUGCAGAGUGGCUGUGACUAGAAUGCC: the self-cleavage amounted to 0.53.

As to GGCAGCGCUCAACACAGCAUGGCAAAGUGGGUGUGGCUAGACUGCC, the self-cleavage came to 0.14. With UGCAGAGCUCAACACAGCGUGGUAAAGUGGCUGUGGCUACACUGCC the figure was 0.03.

GGAAGAGCUCAAGACAGCGUGGCAAAGUGGCUGUGGGUAGACUGCC: the self-cleavage is 0.07.

Take GGCAGAGCUCAACACAGAGCGGCAAAGGGGCUGUGGCUAGACUGCC: the self-cleavage stood at 0.41.

Consider GGCAGAGUUCAACACAGCGUGGCAAAAUGGCGGUGGCUAGACUGCU, for which the self-cleavage is 0.15. With GGCAGAGCUGAACAAAGCGUGGCAAAGUGGCUGUGCCUGGACUGCC the figure was 0; with GGAAGAGCUCAACACAGCUUGGCUAAGUGACUGUGGCUAGACCGCC, 0.07. Under GGCAGAUCUCAACACAGGGUGGCAAAGUGGCUGUGGCCAGACUGCU stands 0.08; under GCCAGAGCUCAACACAGCGUGCCAAAGUGGCUGUGGCUGGACUGCC, 0.42; under GGCAAAGCUCAACACUGCGUGGAAAAGUGGCUGUGCCUAGACUGCC, 0.1.

Regarding GCCAGAGCCCAACACAGCGUGACAGAGUGGCUGUGGCUAGACUGCC, the self-cleavage is 0. With GGCAGAGCUCAACACAGCGUGGCAAAGUGGCUGUUGCUCGAUUGCC, the self-cleavage came to 0.14.

GGCAGAGCUCAACACCUCGUGGCAAAGUGGCCGUGUCUAGACUGCC: the self-cleavage came out at 0.05. As to GGCAGAGCUCAACACACCGUGGCAAAGUCUCUGUGGCUAGACUUCC, the self-cleavage amounted to 0.02. With GGCAGAGCUCAACACAGUGUGGAAAAGUGGGUGUGGCUAGACUGCC the figure was 0.08.
